Assay results published in the supplement of paper PMC8728848.
The list shows a part of the results.

Key:
Assay in all cases: glycan array binding signal (z-score within array); higher = stronger binding
Settings in all cases: glycan notation: IUPAC condensed, linker removed
[1] = biological target: Gal(b1-3)GlcNAc(b1-6)[Gal(b1-3)]GalNAc
Outline: (§1)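 From the Consortium for Functional Glycomics database, 3228 arrays were curated, keeping only those whose protein sequence was available. Binding is given as a within-array Z-score averaged across arrays sharing a protein sequence and across linkers. Negative Z-scores can be read as non-binding.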

Gal(b1-3)GlcNAc6S = biological target: Gal(b1-3)GlcNAc6S
Outline: as §1

[2] = biological target: Gal(b1-3)[Fuc(a1-4)]GlcNAc
Outline: as §1

[3] = biological target: Gal(b1-3)[Fuc(a1-4)]GlcNAc(b1-2)Man
Outline: as §1

[4] = biological target: Gal(b1-3)[Fuc(a1-4)]GlcNAc(b1-2)Man(a1-3)[Gal(b1-3)[Fuc(a1-4)]GlcNAc(b1-2)Man(a1-6)]Man(b1-4)GlcNAc(b1-4)[Fuc(a1-6)]GlcNAc
Outline: as §1

[5] = biological target: Gal(b1-3)[Fuc(a1-4)]GlcNAc(b1-3)Gal(b1-3)[Fuc(a1-4)]GlcNAc
Outline: as §1

[6] = biological target: Gal(b1-3)[Fuc(a1-4)]GlcNAc(b1-3)Gal(b1-4)[Fuc(a1-3)]GlcNAc
Outline: as §1

[7] = biological target: Gal(b1-3)[Fuc(a1-4)]GlcNAc(b1-6)GalNAc
Outline: as §1

[8] = biological target: Gal(b1-3)[GlcNAc(b1-6)]GalNAc
Outline: as §1

[9] = biological target: Gal(b1-3)[Neu5Ac(a2-6)]GalNAc
Outline: as §1

[10] = biological target: Gal(b1-3)[Neu5Ac(a2-6)]GlcNAc(b1-4)Gal(b1-4)Glc
Outline: as §1

[11] = biological target: Gal(b1-3)[Neu5Ac(b2-6)]GalNAc
Outline: as §1

Gal(b1-4)Gal = biological target: Gal(b1-4)Gal
Outline: as §1

[12] = biological target: Gal(b1-4)GalNAc(a1-3)[Fuc(a1-2)]Gal(b1-4)GlcNAc
Outline: as §1

[13] = biological target: Gal(b1-4)GalNAc(b1-3)[Fuc(a1-2)]Gal(b1-4)GlcNAc
Outline: as §1

Gal(b1-4)Glc = biological target: Gal(b1-4)Glc
Outline: as §1

Gal(b1-4)Glc6S = biological target: Gal(b1-4)Glc6S
Outline: as §1

Gal(b1-4)GlcNAc = biological target: Gal(b1-4)GlcNAc
Outline: as §1

[14] = biological target: Gal(b1-4)GlcNAc(a1-6)Gal(b1-4)GlcNAc
Outline: as §1

Gal(b1-4)GlcNAc(b1-2)Man = biological target: Gal(b1-4)GlcNAc(b1-2)Man
Outline: as §1

[15] = biological target: Gal(b1-4)GlcNAc(b1-2)Man(a1-3)Man(b1-4)GlcNAc(b1-4)GlcNAc
Outline: as §1

[16] = biological target: Gal(b1-4)GlcNAc(b1-2)Man(a1-3)[Gal(b1-4)GlcNAc(b1-2)Man(a1-6)]Man(b1-4)GlcNAc(b1-4)GlcNAc
Outline: as §1

[17] = biological target: Gal(b1-4)GlcNAc(b1-2)Man(a1-3)[Gal(b1-4)GlcNAc(b1-2)Man(a1-6)]Man(b1-4)GlcNAc(b1-4)[Fuc(a1-6)]GlcNAc
Outline: as §1

[18] = biological target: Gal(b1-4)GlcNAc(b1-2)Man(a1-3)[Gal(b1-4)GlcNAc(b1-2)Man(a1-6)][Gal(b1-4)GlcNAc(b1-4)]Man(b1-4)GlcNAc(b1-4)[Fuc(a1-6)]GlcNAc
Outline: as §1

[19] = biological target: Gal(b1-4)GlcNAc(b1-2)Man(a1-3)[Gal(b1-4)GlcNAc(b1-2)Man(a1-6)][GlcNAc(b1-4)]Man(b1-4)GlcNAc(b1-4)[Fuc(a1-6)]GlcNAc
Outline: as §1

[20] = biological target: Gal(b1-4)GlcNAc(b1-2)Man(a1-3)[GlcNAc(b1-2)Man(a1-6)]Man(b1-4)GlcNAc(b1-4)GlcNAc
Outline: as §1

[21] = biological target: Gal(b1-4)GlcNAc(b1-2)Man(a1-3)[GlcNAc(b1-4)][Gal(b1-4)GlcNAc(b1-2)Man(a1-6)]Man(b1-4)GlcNAc(b1-4)GlcNAc
Outline: as §1

[22] = biological target: Gal(b1-4)GlcNAc(b1-2)Man(a1-3)[Man(a1-6)]Man(b1-4)GlcNAc(b1-4)GlcNAc
Outline: as §1

[23] = biological target: Gal(b1-4)GlcNAc(b1-2)Man(a1-6)Man(b1-4)GlcNAc(b1-4)GlcNAc
Outline: as §1

[24] = biological target: Gal(b1-4)GlcNAc(b1-2)Man(a1-6)[GlcNAc(b1-2)Man(a1-3)]Man(b1-4)GlcNAc(b1-4)GlcNAc
Outline: as §1

[25] = biological target: Gal(b1-4)GlcNAc(b1-2)Man(a1-6)[Man(a1-3)]Man(b1-4)GlcNAc(b1-4)GlcNAc
Outline: as §1

[26] = biological target: Gal(b1-4)GlcNAc(b1-2)[Gal(b1-4)GlcNAc(b1-4)]Man(a1-3)[Gal(b1-4)GlcNAc(b1-2)Man(a1-6)]Man(b1-4)GlcNAc(b1-4)GlcNAc
Outline: as §1

[27] = biological target: Gal(b1-4)GlcNAc(b1-2)[Gal(b1-4)GlcNAc(b1-4)]Man(a1-3)[Gal(b1-4)GlcNAc(b1-2)[Gal(b1-4)GlcNAc(b1-6)]Man(a1-6)]Man(b1-4)GlcNAc(b1-4)GlcNAc
Outline: as §1

[28] = biological target: Gal(b1-4)GlcNAc(b1-2)[Gal(b1-4)GlcNAc(b1-4)]Man(a1-3)[GlcNAc(b1-4)][Gal(b1-4)GlcNAc(b1-2)Man(a1-6)]Man(b1-4)GlcNAc(b1-4)GlcNAc
Outline: as §1

[29] = biological target: Gal(b1-4)GlcNAc(b1-2)[Gal(b1-4)GlcNAc(b1-4)]Man(a1-3)[GlcNAc(b1-4)][Gal(b1-4)GlcNAc(b1-2)[Gal(b1-4)GlcNAc(b1-6)]Man(a1-6)]Man(b1-4)GlcNAc(b1-4)GlcNAc
Outline: as §1

[30] = biological target: Gal(b1-4)GlcNAc(b1-2)[Gal(b1-4)GlcNAc(b1-6)]Man(a1-6)[Gal(b1-4)GlcNAc(b1-2)Man(a1-3)]Man(b1-4)GlcNAc(b1-4)GlcNAc
Outline: as §1

[31] = biological target: Gal(b1-4)GlcNAc(b1-2)[Gal(b1-4)GlcNAc(b1-6)]Man(a1-6)[Gal(b1-4)GlcNAc(b1-2)Man(a1-3)]Man(b1-4)GlcNAc(b1-4)[Fuc(a1-6)]GlcNAc
Outline: as §1

[32] = biological target: Gal(b1-4)GlcNAc(b1-2)[Gal(b1-4)GlcNAc(b1-6)]Man(a1-6)[GlcNAc(b1-4)][Gal(b1-4)GlcNAc(b1-2)Man(a1-3)]Man(b1-4)GlcNAc(b1-4)GlcNAc
Outline: as §1

[33] = biological target: Gal(b1-4)GlcNAc(b1-2)[Gal(b1-4)GlcNAc(b1-6)]Man(a1-6)[GlcNAc(b1-4)][Gal(b1-4)GlcNAc(b1-2)[Gal(b1-4)GlcNAc(b1-4)]Man(a1-3)]Man(b1-4)GlcNAc(b1-4)[Fuc(a1-6)]GlcNAc
Outline: as §1

[34] = biological target: Gal(b1-4)GlcNAc(b1-3)Gal(b1-3)GalNAc
Outline: as §1

[35] = biological target: Gal(b1-4)GlcNAc(b1-3)Gal(b1-3)GlcNAc
Outline: as §1

[36] = biological target: Gal(b1-4)GlcNAc(b1-3)Gal(b1-4)Glc
Outline: as §1

[37] = biological target: Gal(b1-4)GlcNAc(b1-3)Gal(b1-4)GlcNAc
Outline: as §1

[38] = biological target: Gal(b1-4)GlcNAc(b1-3)Gal(b1-4)GlcNAc(b1-2)Man(a1-3)[Gal(b1-4)GlcNAc(b1-3)Gal(b1-4)GlcNAc(b1-2)Man(a1-6)]Man(b1-4)GlcNAc(b1-4)GlcNAc
Outline: as §1

[39] = biological target: Gal(b1-4)GlcNAc(b1-3)Gal(b1-4)GlcNAc(b1-2)Man(a1-3)[Gal(b1-4)GlcNAc(b1-3)Gal(b1-4)GlcNAc(b1-2)Man(a1-6)]Man(b1-4)GlcNAc(b1-4)[Fuc(a1-6)]GlcNAc
Outline: as §1

B1: GS14009A-pdi-495-27-495 (Parabacteroides distasonis) (protein)
chain: FEEVNTDPDSPTDVPTTNLLAYSLYYTSYRLYDRWFAMDEPMTFCGYASKMTYIDESRYNFRTGVQDTNWEYLYRILNNLKDIEKRATFNETPNMLNVSKVMQVHLMQVATDRWRDVPYTDAAKMTDGILQPKYDKQEDIYPGLLATLKEAADGFADGGSDDLGEGDLLFGGDIEKWQRYCNSMRLRLAMRISEVSPALAKETVEEVMGNPTKYPIMESNDDNAFFWWIGTDPNYYEPMADGYRTRKTEYCAADVIVDHMNTREDPRRSSYFQPTKESVEAGEPKYVGYTIGAKANAVASKYSIWGARFFTDLAGFSPYMRVAEPWFCVAEASMLGWNTGISAEDAYNKAVTYSMEENSVSAEDIADYLANAGKFTNDKKQIYYEEWVAMFKQGMEGWSLYRRTGVPDNLYPAPGRPANYSNHNVPPFRSPYPDKERNLNNANCAPFDAEVVDNLWGKQMWWDTRTGVH
**Q.** What does the source list for B1?
**A.** glycan array binding signal (z-score) [1]: 1.19; glycan array binding signal (z-score) (Gal(b1-3)GlcNAc6S): -0.46; glycan array binding signal (z-score) [2]: -0.376; glycan array binding signal (z-score) [3]: 0.388; glycan array binding signal (z-score) [4]: 1.2; glycan array binding signal (z-score) [5]: -0.267; glycan array binding signal (z-score) [6]: -0.102; glycan array binding signal (z-score) [7]: 0.634; glycan array binding signal (z-score) [8]: -0.222; glycan array binding signal (z-score) [9]: -0.338; glycan array binding signal (z-score) [10]: -0.357; glycan array binding signal (z-score) [11]: -0.306; glycan array binding signal (z-score) (Gal(b1-4)Gal): 0.015; glycan array binding signal (z-score) [12]: -0.304; glycan array binding signal (z-score) [13]: -0.198; glycan array binding signal (z-score) (Gal(b1-4)Glc): -0.033; glycan array binding signal (z-score) (Gal(b1-4)Glc6S): 0.186; glycan array binding signal (z-score) (Gal(b1-4)GlcNAc): -0.274; glycan array binding signal (z-score) [14]: -0.233; glycan array binding signal (z-score) (Gal(b1-4)GlcNAc(b1-2)Man): 0.015; glycan array binding signal (z-score) [15]: -0.62; glycan array binding signal (z-score) [16]: 0.093; glycan array binding signal (z-score) [17]: 0.355; glycan array binding signal (z-score) [18]: -0.024; glycan array binding signal (z-score) [19]: -0.845; glycan array binding signal (z-score) [20]: -0.19; glycan array binding signal (z-score) [21]: 15.2; glycan array binding signal (z-score) [22]: 0.358; glycan array binding signal (z-score) [23]: -0.623; glycan array binding signal (z-score) [24]: -0.264; glycan array binding signal (z-score) [25]: -0.365; glycan array binding signal (z-score) [26]: -0.051; glycan array binding signal (z-score) [27]: -0.252; glycan array binding signal (z-score) [28]: 0.2; glycan array binding signal (z-score) [29]: -0.268; glycan array binding signal (z-score) [30]: 0.216; glycan array binding signal (z-score) [31]: 1.67; glycan array binding signal (z-score) [32]: -0.249; glycan array binding signal (z-score) [33]: -0.3; glycan array binding signal (z-score) [34]: -0.494; glycan array binding signal (z-score) [35]: -0.391; glycan array binding signal (z-score) [36]: 0.051; glycan array binding signal (z-score) [37]: -0.485; glycan array binding signal (z-score) [38]: 0.299; glycan array binding signal (z-score) [39]: 0.273
